Assay results reported in PubChem BioAssay AID624418 (National Center for Advancing Translational Sciences (NCATS), 2012).
Hit rate of the full screen: of about 410,000 compounds, about 530 (0.13%) were called active. This list was built around the results that the source calls inconclusive (neither active nor inactive); the mix of calls is not that of the screen. The call rests on the fitted dose curve; in most records, active means well fitted inhibition curve with a large enough effect; inconclusive means small, poorly fitted or top-dose-only effect, or another doubt; inactive means no such curve, though single readings can be large or run the other way. A potency beside an inconclusive call is a rough fit, not a confirmed value.

Assay: qHTS of GLP-1 Receptor Inverse Agonists: Cytotox Screen
Details: HEK293 cAMP-luciferase reporter cells, luminescence, 24 h; activity change, negative = inhibition: at 38.3 µM (top of the series) unless noted
Method in brief: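 Compound-treated cells are incubated 24 hr at 37 deg C under 5% CO2 after a 12 hour attachment period, then luciferase detection reagent is added and luminescence is measured following 12 min at room temperature; lowered signal indicates toxicity.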
On the % scale 0 is the no-effect control and ±100 the full control effect; potency means the concentration at half of the fitted maximal effect.

| Structure (SMILES) | Potency | activity change, negative = inhibition |
| --- | --- | --- |
| Cc1ccc(S(=O)(=O)N(CC(=O)Nc2cccnc2)c2cccc([N+](=O)[O-])c2)cc1 | inconclusive: 14.1 µM [inhibitor, single point] |  |
| Cc1ccc(-n2c(-c3ccco3)nc3nc4ccccc4nc32)cc1F | inactive |  |
| COc1ccc(NC(=O)/C(C#N)=C\c2ccc(-c3cccc(C(=O)O)c3C)o2)cc1 | inconclusive: 12.6 µM [inhibitor, partial curve, poor fit] |  |
| Fc1cccc(CCN2C(=S)NC[C@@H]2Cc2ccccc2)c1 | inconclusive: 7.08 µM [inhibitor, partial curve] |  |
| CCN1CC(C)C(O)(c2ccccc2)CC1C (stereo unspecified) | inconclusive: 28.2 µM [inhibitor, single point] |  |
| N#C/C(=C(/O)c1ccc([N+](=O)[O-])s1)c1nc2ccccc2[nH]1 | inconclusive: 5.01 µM [inhibitor, partial curve] |  |
| NC(=O)c1ccc(Cn2c(C(=O)c3cc(Cl)c(N)c(Cl)c3)c3ccccc3[n+]2[O-])cc1 | inconclusive: 7.94 µM [inhibitor, partial curve] |  |
| COc1ccc(/C=C2\SC(=O)N(CC(=O)Nc3cccc(C)c3)C2=O)cc1O | inconclusive: 28.2 µM [inhibitor, single point] |  |
| O[C@H]1C[C@H](c2ccccc2)N(CC2CCCCC2)C[C@@H]1n1cc(C2CC2)nn1 | inconclusive: 28.2 µM [inhibitor, single point] |  |
| CCN(CC(=O)N1CCOCC1)S(=O)(=O)c1ccc(Cl)cc1 | inactive |  |
| C#CCOc1c(Br)cc(C2C(C(=O)OC)=C(C)NC3=C2C(=O)c2ccccc23)cc1OCC (stereo unspecified) | inconclusive: 2.51 µM [inhibitor, partial curve, poor fit] |  |
| Cc1ccc(C)c(N(CC(=O)NC2CCCC2)C(=O)c2oc(C(C)(C)C)cc2C)c1 | inconclusive: 10 µM [inhibitor, partial curve, poor fit] |  |
| O=C(CNc1ccc(F)cc1)N/N=C1\CCc2ccccc21 | inactive |  |
| COc1cc(OC)c(NC(=O)c2nn(C)c3c2COc2ccccc2-3)cc1Cl | inactive |  |
| CC(C)n1c(O)c(N=NC(=O)CNC(=O)Cc2ccc(Cl)cc2)c2ccccc21 | inconclusive: 28.2 µM [inhibitor, single point] |  |
| O=C(c1ccc(OC2CCN(Cc3ccccc3C(F)(F)F)CC2)cc1)N1CCCCC1 | inconclusive: 10 µM [inhibitor, single point] |  |
| CCc1ccc(C(=O)NNC(=O)[C@H](C)NC(=O)c2ccco2)cc1 | inactive |  |
| Cc1ccc(OCC(=O)Nc2ccc(NC(=O)c3ccco3)cc2)c(C)c1 | inconclusive: 5.62 µM [inhibitor, partial curve] |  |
| c1cncc(Nc2c3ccccc3nc3ccccc23)c1 |  | inconclusive: -33.9% [inhibitor] |
| Cc1cc(C)c(S(=O)(=O)ON2C(=O)c3ccccc3C2=O)cc1C | inconclusive: 10 µM [inhibitor, single point] |  |
| NS(=O)(=O)c1ccc(CNC(=O)c2cc(-c3cccnc3)nc3ccc(Br)cc23)cc1 | inconclusive: 28.2 µM [inhibitor, single point] |  |
| CCOc1ccc2oc(C(=O)NC3CCN(Cc4ccccc4)CC3)c(C)c2c1 | inactive |  |

| Structure (SMILES) | Potency | activity change, negative = inhibition |
| --- | --- | --- |
| Cc1ccc(NC(=S)N/N=C/c2c(Cl)cccc2Cl)c(C)c1 | inconclusive: 1.26 µM [inhibitor, full curve, poor fit] |  |
| COCCn1c(C)cc(O)c(C(c2ccc(OC)cc2)N2CCCCC2)c1=O (stereo unspecified) | inactive |  |
| CC(C)c1ccc(N=C2NN=C(c3cccs3)CS2)cc1 | inconclusive: 20 µM [inhibitor, single point] |  |
| Cc1ccc2nc(C(F)(F)F)c(C#N)c(N)c2c1 | inconclusive: 28.2 µM [inhibitor, single point] |  |
| CCCCN1CNC(=S)N(CCc2ccc(OCC)c(OCC)c2)C1 | inconclusive: 28.2 µM [inhibitor, single point] |  |
| COCCCNC(=O)c1ccccc1C(F)(F)F | inconclusive: 28.2 µM [inhibitor, single point] |  |
| CCOc1ccc2c(c1)c(N=NC(N)=S)c(O)n2C | inconclusive: 3.16 µM [inhibitor, full curve, poor fit] |  |
| COc1cc(C=Nc2cccc(C)c2)c(O)c([N+](=O)[O-])c1 | inconclusive: 6.31 µM [inhibitor, partial curve] |  |
| Cc1ccc[n+](CC(=O)/C=C2\N(C)c3ccccc3C2(C)C)c1 | inconclusive: 20 µM [inhibitor, single point] |  |
| CNC(=S)NCc1ccc2[nH]c(C)cc2c1 | inconclusive: 2 µM [inhibitor, partial curve, poor fit] |  |
| CCS(=O)(=O)N1CCCC(C(=O)c2ccc(OC)cc2C)C1 (stereo unspecified) | inactive |  |
| Nc1ccc2nc(-c3ccc(Cl)cc3)[nH]c2c1 | inconclusive: 12.6 µM [inhibitor, single point] |  |
| CCCN(CC(=O)Nc1ccccc1Br)CC(=O)Nc1ccc(F)c(F)c1F | inactive |  |
| S=C(Nc1ccc(Br)cc1Cl)NC1CCN(Cc2ccccc2)CC1 | inconclusive: 11.2 µM [inhibitor, partial curve, poor fit] |  |
| CCOc1ccc(NC(=O)CSc2oc(-c3ccco3)nc2S(=O)(=O)c2ccc(Cl)cc2)cc1 | inactive |  |
| CS(=O)(=O)c1ccc(C(=O)NC(Cc2ccccc2)c2ccccc2)cc1 (stereo unspecified) | inconclusive: 28.2 µM [inhibitor, single point] |  |
| O=S1(=O)C=C(Sc2nc3cc(Cl)ccc3o2)c2ccccc21 | inconclusive: 5.62 µM [inhibitor, partial curve] |  |
| O=C(CN1C(=O)CSc2ncccc21)NCCN1CCOCC1 | inconclusive: 28.2 µM [inhibitor, single point] |  |
| COc1ccc(NC(=O)c2cc(-c3ccncc3)nc3ccccc23)c(OC)c1 | inconclusive: 11.2 µM [inhibitor, single point] |  |
| COc1ccc(-n2nc3c(N4CCCC(C(=O)NCc5ccccc5C)C4)nnc(C)c3c2C)cc1 (stereo unspecified) | inconclusive: 11.2 µM [inhibitor, single point] |  |
| Cc1ccccc1OCC(O)CN1CCN(CC(O)COc2ccccc2C)C(C)C1 (stereo unspecified) | inconclusive: 12.6 µM [inhibitor, single point] |  |
| COc1ccc(/C=N/NC(=S)Nc2ccccc2)cc1COc1ccc(Br)cc1 | inconclusive: 28.2 µM [inhibitor, single point] |  |

| Structure (SMILES) | Potency | activity change, negative = inhibition |
| --- | --- | --- |
| CC1=NN(C(=O)c2cccnc2)C(O)(C(F)(F)F)C1 (stereo unspecified) | inconclusive: 3.16 µM [inhibitor, full curve] |  |
| O=[N+]([O-])c1ccc(NN=Cc2ccccc2O)nc1 | inconclusive: 1.26 µM [inhibitor, full curve, poor fit] |  |
| OC(c1ccc(-c2ccccc2)cc1)c1ncc(-c2ccc(F)cc2)[nH]1 (stereo unspecified) | inconclusive: 12.6 µM [inhibitor, single point] |  |
| Cc1[nH]c2ccccc2c1C1(O)C(=O)N(Cc2ccccc2)c2ccc(Br)cc21 (stereo unspecified) | inconclusive: 28.2 µM [inhibitor, single point] |  |
| COc1cc(/C=C2\COC/C(=C\c3cc(OC)c(OC)c(OC)c3)C2=O)cc(OC)c1OC | inconclusive: 0.501 µM [inhibitor, full curve, poor fit] |  |
| COC(=O)C(NNc1ccccc1)(NC(=O)c1ccc(F)cc1)C(F)(F)F (stereo unspecified) | inactive |  |
| CCOc1ccc(OCC)c(NC(=O)CCCN2C(=S)NC(C)(C)CC2C)c1 (stereo unspecified) | inconclusive: 25.1 µM [inhibitor, single point] |  |
| CCCCOc1ccc(C(=O)N/N=C/c2ccc(OCCN3CCCCC3)c(OC)c2)cc1 | inconclusive: 20 µM [inhibitor, single point] |  |
| COc1ccc(C(NC(C)=O)c2cc(Cl)c3cccnc3c2O)cc1 (stereo unspecified) | inconclusive: 7.94 µM [inhibitor, partial curve, poor fit] |  |
| CCN1C(=O)/C(=C/c2ccc(N3CCCC3)cc2)NC1=S | inconclusive: 28.2 µM [inhibitor, single point] |  |
| Cc1ccc(C)c(C(=O)OCC(=O)Nc2cccc(S(=O)(=O)N3CCCCC3)c2)c1 | inactive |  |
| O=C(N/N=C/c1cc([N+](=O)[O-])ccc1O)c1cccc(N2CCCC2=O)c1 | inconclusive: 8.91 µM [inhibitor, partial curve] |  |
| COc1cccc2c1Oc1ncccc1N(C(=O)CCC(=O)NCc1ccc(OC(C)C)cc1)C2 | inactive |  |
| Cc1ccc(C(=O)NC(=S)NCc2ccccc2)cc1 | inconclusive: 28.2 µM [inhibitor, single point] |  |
| CC(C)(C)c1ccc(S(=O)(=O)NCC(=O)Nc2ccc(-c3nc4ccccc4s3)cc2)cc1 | inconclusive: 31.6 µM [inhibitor, single point] |  |
| Cc1ccc(OCC(O)Cn2c3ccccc3c3ccccc32)cc1 (stereo unspecified) | inconclusive: 12.6 µM [inhibitor, partial curve, poor fit] |  |
| Cc1cc2ccccn2c1C(=O)c1ccccc1F | inactive |  |
| O=C(Nc1cccc(F)c1)C1CCN(c2nc3ccccc3nc2C(F)(F)F)CC1 | inactive |  |
| Cc1cc([N+](=O)[O-])cc(/C=N\NC(=O)C2COc3ccccc3O2)c1O (stereo unspecified) | inconclusive: 3.16 µM [inhibitor, partial curve, poor fit] |  |
| CCCCCNC1=CC(=O)CC(c2ccccc2)C1 (stereo unspecified) | inconclusive: 11.2 µM [inhibitor, single point] |  |
| CC(C)(C)c1ccc(OCCNC(=S)Nc2ccccc2)cc1 | active: 5.62 µM |  |
| Oc1ccccc1Nc1nc(NCc2ccccc2)c2ccccc2n1 | inconclusive: 28.2 µM [inhibitor, single point] |  |
